# This is one part of the list. These are noisy estimates, calculated here from bound and input reads.
# Biological target: T1, Pho4 (S. cerevisiae) (UniProt P07270)
# T1 sequence: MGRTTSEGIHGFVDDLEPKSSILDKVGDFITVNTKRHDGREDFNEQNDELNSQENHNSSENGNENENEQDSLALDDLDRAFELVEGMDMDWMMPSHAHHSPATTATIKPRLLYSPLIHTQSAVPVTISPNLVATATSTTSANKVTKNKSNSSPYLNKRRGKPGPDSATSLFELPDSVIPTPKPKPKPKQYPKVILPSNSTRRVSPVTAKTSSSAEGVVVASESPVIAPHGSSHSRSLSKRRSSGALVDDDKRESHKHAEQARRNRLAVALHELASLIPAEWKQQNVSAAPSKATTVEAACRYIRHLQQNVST
# Assay: relative binding free energy (BET-seq); higher = weaker binding
# Settings: reference: library average
row,Sequence,relative binding free energy
1,TGTATCACGTGGCATA,-0.01 kcal/mol
2,TTGCGCACGTGCGTTA,-0.01 kcal/mol
3,TGGCGCACGTGATGTG,0.11 kcal/mol
4,ATTTTCACGTGTACTT,0.22 kcal/mol
5,CTGAACACGTGGGTTG,-0.08 kcal/mol
6,AGGTGCACGTGGTGAT,-0.05 kcal/mol
7,CCTGACACGTGGGGTT,-0.08 kcal/mol
8,TCTGGCACGTGTTAAG,-0.01 kcal/mol
9,TCGGTCACGTGGTAAG,-0.03 kcal/mol
10,ATAGTCACGTGAGGTT,0.3 kcal/mol
11,AGGCTCACGTGAAAGT,0.5 kcal/mol
12,ACTTGCACGTGTGTTG,0.01 kcal/mol
13,CTGGTCACGTGGTTGT,0.1 kcal/mol
14,TTTTGCACGTGTGAGT,0.09 kcal/mol
15,TGCTACACGTGAGTGA,0.43 kcal/mol
16,TAGGGCACGTGTGTAG,-0.13 kcal/mol
17,TGCGACACGTGAGGTT,0.37 kcal/mol
18,TGTGACACGTGAAGCG,0.22 kcal/mol
19,GGGAGCACGTGTGGTA,0.01 kcal/mol
20,CACGTCACGTGTGGGT,0.17 kcal/mol
21,GTGGACACGTGGAGTG,0.11 kcal/mol
22,TGGCGCACGTGTGTGA,-0.14 kcal/mol
23,ATGTTCACGTGTGGTT,0.35 kcal/mol
24,TGTGGCACGTGCAAGG,-0.11 kcal/mol
25,TGTCTCACGTGTGTTG,0.18 kcal/mol

row,Sequence,relative binding free energy
1,CGTAGCACGTGTTATG,-0.07 kcal/mol
2,TATTTCACGTGGAGAT,0.24 kcal/mol
3,TGGTTCACGTGGCAAG,0.29 kcal/mol
4,TAGTACACGTGCTGGG,-0.02 kcal/mol
5,GGGTGCACGTGTCTTG,0.08 kcal/mol
6,AGGTTCACGTGCGTGC,0.2 kcal/mol
7,AGTCTCACGTGTGGAG,0.11 kcal/mol
8,CGTTTCACGTGTTTAG,0.22 kcal/mol
9,GGGATCACGTGGGATA,0.1 kcal/mol
10,TGCTTCACGTGTGGCT,0.14 kcal/mol
11,GAAGGCACGTGAGTTG,0.05 kcal/mol
12,TGGTACACGTGGTTTC,0.12 kcal/mol
13,CAAAGCACGTGGGTGT,-0.28 kcal/mol
14,GGAGGCACGTGGCTGA,-0.2 kcal/mol
15,TCAGGCACGTGGTTAT,-0.22 kcal/mol
16,GTGTTCACGTGATGGC,0.23 kcal/mol
17,TGTGCCACGTGTAATG,0.11 kcal/mol
18,TTTTACACGTGTTCTT,0.13 kcal/mol
19,TTCGACACGTGGGGCG,-0.24 kcal/mol
20,TATCGCACGTGGGAAT,-0.15 kcal/mol
21,CTTAGCACGTGGGTTT,-0.26 kcal/mol
22,AAAAACACGTGGGTGG,-0.17 kcal/mol
23,AGGTTCACGTGCAATG,0.28 kcal/mol
24,TTTTTCACGTGTAGCT,0.23 kcal/mol
25,TTATTCACGTGGAGAT,0.17 kcal/mol

row,Sequence,relative binding free energy
1,GTGGTCACGTGTTGAC,0.14 kcal/mol
2,GTGGTCACGTGGATGG,0.11 kcal/mol
3,TGAATCACGTGTCGTT,0.16 kcal/mol
4,GTAGGCACGTGTGGTA,-0.04 kcal/mol
5,TAGGTCACGTGGCTCG,0 kcal/mol
6,TGTGTCACGTGGAGGT,0.09 kcal/mol
7,GGGCACACGTGTAATG,0.18 kcal/mol
8,TGAATCACGTGAAGGT,0.37 kcal/mol
9,GGTCACACGTGTGTTG,-0.03 kcal/mol
10,AGAAACACGTGGGGGT,-0.02 kcal/mol
11,CATGACACGTGGGTGG,-0.12 kcal/mol
12,GGATACACGTGCGTTG,0 kcal/mol
13,TCATGCACGTGGAGTT,-0.02 kcal/mol
14,GTAATCACGTGGTCGA,0.13 kcal/mol
15,GGAACCACGTGGGGGG,-0.07 kcal/mol
16,TTCAGCACGTGAGGTG,0.25 kcal/mol
17,GTTACCACGTGGTGGT,-0.01 kcal/mol
18,TTTAACACGTGAGTAG,0.22 kcal/mol
19,TATGACACGTGAGTGA,0.12 kcal/mol
20,TTTAACACGTGAAGGG,0.25 kcal/mol
21,AAGGCCACGTGCGGGT,-0.21 kcal/mol
22,TATAACACGTGTGTGC,-0.05 kcal/mol
23,TGCGTCACGTGGCGAG,-0.06 kcal/mol
24,TGTCTCACGTGGTGCG,0 kcal/mol
25,AGAATCACGTGTTGAT,0.18 kcal/mol

row,Sequence,relative binding free energy
1,GTTTTCACGTGGAAGG,0.26 kcal/mol
2,TGTTTCACGTGTTAAC,0.24 kcal/mol
3,GCTTGCACGTGTTAAG,0.1 kcal/mol
4,TTGGACACGTGTAATA,0.17 kcal/mol
5,ATTCTCACGTGATGGG,0.28 kcal/mol
6,GTTATCACGTGTCGTC,0.28 kcal/mol
7,GGATTCACGTGTTGAA,0.18 kcal/mol
8,AAGTGCACGTGTTAAT,0.07 kcal/mol
9,TTCTACACGTGTTTAA,0.07 kcal/mol
10,TGGGACACGTGCGGTA,-0.05 kcal/mol
11,GGGGGCACGTGCAGGA,-0.14 kcal/mol
12,TATAGCACGTGGGAGG,-0.2 kcal/mol
13,TGTGGCACGTGCTCAG,-0.18 kcal/mol
14,TTTCTCACGTGGGATG,0.17 kcal/mol
15,AGGTGCACGTGATAAT,0.07 kcal/mol
16,TAGGGCACGTGACGGA,-0.05 kcal/mol
17,AGTGTCACGTGTTTTG,0.11 kcal/mol
18,GGGTTCACGTGTCGTA,0.37 kcal/mol
19,TGTGACACGTGTTGGG,0.03 kcal/mol
20,AGAGGCACGTGTGCGT,-0.09 kcal/mol
21,GGGGCCACGTGTTGTT,0.02 kcal/mol
22,GTTTACACGTGGTGTC,0.01 kcal/mol
23,GATGACACGTGTGCTT,0.19 kcal/mol
24,TAGATCACGTGTAGCG,0.15 kcal/mol
25,TTTAGCACGTGAGTGA,0.13 kcal/mol

row,Sequence,relative binding free energy
1,TTGGACACGTGGTGCG,0.09 kcal/mol
2,GTTTACACGTGTTGAA,0.23 kcal/mol
3,GGTAGCACGTGGGTGG,-0.12 kcal/mol
4,CGGCTCACGTGGTGTT,0.08 kcal/mol
5,TGATTCACGTGAGGAT,0.46 kcal/mol
6,GGTAGCACGTGGGACG,-0.11 kcal/mol
7,AATTACACGTGGTCGT,0.03 kcal/mol
8,GTTGCCACGTGGTGTA,-0.22 kcal/mol
9,TCTTTCACGTGAGGAG,0.32 kcal/mol
10,TGGCGCACGTGGATGG,-0.01 kcal/mol
11,CTTGACACGTGGTTGT,-0.02 kcal/mol
12,GGGTACACGTGTGTTT,0.15 kcal/mol
13,GGCCGCACGTGTGTGG,-0.09 kcal/mol
14,GTCGGCACGTGGCGTG,-0.08 kcal/mol
15,AAGATCACGTGATGTT,0.27 kcal/mol
16,ATAAACACGTGTTGTA,-0.13 kcal/mol
17,GAGGGCACGTGAGGTG,0.18 kcal/mol
18,AAATTCACGTGTCTAT,0.23 kcal/mol
19,AGTTACACGTGTAGGG,0.13 kcal/mol
20,TTCTACACGTGGGTTT,0 kcal/mol
21,GGACGCACGTGGTTTT,-0.11 kcal/mol
22,GGCAGCACGTGGAGGG,-0.11 kcal/mol
23,CGGGTCACGTGGTTCC,0.27 kcal/mol
24,ATATACACGTGGCTTG,0.04 kcal/mol
25,GTGCGCACGTGCATTG,0 kcal/mol

row,Sequence,relative binding free energy
1,AGTTTCACGTGTGTAC,0.25 kcal/mol
2,ATGATCACGTGAGGCG,0.15 kcal/mol
3,GGTCACACGTGTAAGT,0.11 kcal/mol
4,ATGGTCACGTGCGCGG,-0.19 kcal/mol
5,TTGATCACGTGGTTTA,0.06 kcal/mol
6,GTATGCACGTGATTTG,0.24 kcal/mol
7,CAGTGCACGTGGTTAT,-0.07 kcal/mol
8,TTTTACACGTGCTGGT,0.05 kcal/mol
9,GAAAGCACGTGTGTGT,0.09 kcal/mol
10,AACGGCACGTGTGTGT,-0.12 kcal/mol
11,GGTGGCACGTGCACGT,-0.08 kcal/mol
12,GGTGCCACGTGTGAAG,0.04 kcal/mol
13,CGGCACACGTGGTGTT,0 kcal/mol
14,GGTTACACGTGACGTT,0.36 kcal/mol
15,TGGATCACGTGGTGCT,0.16 kcal/mol
16,TGTATCACGTGGTACC,0.22 kcal/mol
17,TAGTTCACGTGCTTAT,0.26 kcal/mol
18,AGGCTCACGTGGGGGG,0.08 kcal/mol
19,TGTTGCACGTGGCAAT,-0.14 kcal/mol
20,TTATTCACGTGTTCGG,0.27 kcal/mol
21,AATGCCACGTGGGGTA,-0.25 kcal/mol
